Reference: the RNAGym collection of RNA variant scans (doi:10.7554/elife.90254)
Read counts are not given, so values of variants with three or more changes are uncertain.

B1: LINE1-mini (parent)
chain: GGCAGAGCUCAACACAGCGUGGCAAAGUGGCUGUGGCUAGACUGCC

Variants of: B1
Assay: self-cleavage, relative activity (ratio to wild type); higher = more cleavage; in vitro, sequencing; the parent is a self-cleaving ribozyme

Variant | self-cleavage
GGCAGAUCUGAACACAGCGUGGCAAAGUGGAUGUGUCUAGACUGCC [G7U C10G C31A G36U] | 0.03
GGCAGAUCUCCACACAGUGUGGCAAAGAGGCUGUGGCUAGACUGCC [G7U A11C C18U U28A] | 0.02
GGCAGAUCUCAACACAGCGUGGCCAAGUGGCUGUGGCUAGACUGGC [G7U A24C C45G] | 0.13
GGCAGAUCUCAAUACAGCGUGGCAAAGUGGAUGUGGCUAGACUGCC [G7U C13U C31A] | 0.3
GGCAGAUGUCAACACGGCGUGGCAAAGUGGCUGUCGCUAGACUGUC [G7U C8G A16G G35C C45U] | 0.08
GGCAGAUAUCAACACAGCGUGGCAAAGUUGCUAUGGGUAGACUGCC [G7U C8A G29U G33A C37G] | 0.13
GGCAGAUAUCAACACAGCGCAGCAAAGUGGCGGUGGCUAGACUGCC [G7U C8A U20C G21A U32G] | 0.07
GGCAGAUAUCAACACAGCGUGGCAAAAUGGCGGUGGCUAGACUGCC [G7U C8A G27A U32G] | 0.21
GGCAGAUAUCAACAAAGCGUGGCAAAGUGUCUGUGGCUAGACUGCC [G7U C8A C15A G30U] | 0.39
GGCAGAUCUCAACACGGCGUGGCAAAGUGGCUGUGGCUAGUCUGCC [G7U A16G A41U] | 0.04
GGCAGAUCUCAAGACAUAGUGGAAAAGUGGCUUUGGCUAGACUCCC [G7U C13G G17U C18A C23A G33U G44C] | 0.02
GGCAGAUCUCUACACAGCGUGGUAAAGUGGCUGUGGCUAGACUGCC [G7U A11U C23U] | 0.02
GGCAGAUCUCAACACUGCGUGGCAAAGUGCCUGUGGCUAGAUUGCG [G7U A16U G30C C42U C46G] | 0.12
GGCAGAUUUCAAAACAGCGUGACCAAGUGGCUGUGCCUAGACUGCC [G7U C8U C13A G22A A24C G36C] | 0.04
GGCAGAUCUGAACACAGCGUGGCAAAGUAGCUGUGGCUAGACUGCC [G7U C10G G29A] | 0.03
GGCAGAUCUCAACACAGCGUGGCAAUGUCUCUGUGGCUAGACUGCC [G7U A26U G29C G30U] | 0.05
GGCAGAUCUCAACACAGAGUGGCAAAGUGGCUGUGGCUAGACGCCC [G7U C18A U43G G44C] | 0.03
GGCAGAUUUCAAUGCAGCGUGGCAAAGUGGCUGUGGCGAGACCGCC [G7U C8U C13U A14G U38G U43C] | 0.14
GGCAGAUCUCAACACAGUGUGGCAAACCGGGUGAGGCUAGACUGCC [G7U C18U G27C U28C C31G U34A] | 0.01

Variant | self-cleavage
GGCAGAUCUAAACACAGCGUGGCAAAAUGGCUGUGGCUAGACUGCC [G7U C10A G27A] | 0
GGCAGAUCUCAGCACAGUGUAGCAAAGUGGCUGUGGCAAGACUGCC [G7U A12G C18U G21A U38A] | 0.02
GGCAGAUCUCAACACAGCGUGGCAAAGUGGCUGUGGCUCUACUGCC [G7U A39C G40U] | 0.32
GGCAGAUCUCAACACAGAGUGGCAAAGUGGCUGUGGCUAUACUGCC [G7U C18A G40U] | 0.03
GGCAGAUCUCUACACAGCGAGGCAAAGUGGCUAUCGCUAGACUGCC [G7U A11U U20A G33A G35C] | 0.03
GGCAGAUCUCAAUACAGCGUGGCCAAGUGGCUGUGGCUAGACUGCC [G7U C13U A24C] | 0.39
GGCAGAUCUCAACACAGCGUGGCAAGGUGGCUCUGGCUAGUCUGCC [G7U A26G G33C A41U] | 0.13
GGCAGAUCUCAACCCAGCGUUGCAAAGUGGCUGUGCCUAGACUGCC [G7U A14C G21U G36C] | 0
GGCAGAUCUCAACACAGCGUGGCUGAGUGGCUGUGGCUAGACUGCC [G7U A24U A25G] | 0.07
GGCAGAUCUCAAGACAUCGUGGCAAAGUGGCUGUGGCUAGACUGCC [G7U C13G G17U] | 0.09
GGCAGAUUUCAACACAUCGUGGUAAAGUGGCUGUGGCUAGACUGCC [G7U C8U G17U C23U] | 0.33
GGCAGAUCUCAGCACAGCGUGGCAAAGUGGCUGUUCCUAGAUUGCU [G7U A12G G35U G36C C42U C46U] | 0.14
GGCAGAUCUCAACACAGGGCGCCAAAGUGGCUGUGGCUAGACUGCC [G7U C18G U20C G22C] | 0.05
GGCAGAUCUGAACACAGCGUGGCAAAGUGACUGUGGCUAGACUGCC [G7U C10G G30A] | 0.01
GGCAGAUCUCAACCCAGCGUGGCAAAGUGGCUGUCGCUAGACUGCC [G7U A14C G35C] | 0.06
GGCAGAUCUCGACAUAGCUUGGCAAAGUGGCUGUGGUUAGACUGCC [G7U A11G C15U G19U C37U] | 0.03
GGCAGAUCUCAACACGGCGUGGCAUAGUGUCUGUGGCUAGACUGCC [G7U A16G A25U G30U] | 0.2
GGCAGAUCUCAUCACAGCGUGGCAAAGUGGCAGUGGUUAGACUGCC [G7U A12U U32A C37U] | 0.02
GGCAGAUAUGAACACGGCUUGGCAAAGUGGCUGUGGCUAGAGUGCC [G7U C8A C10G A16G G19U C42G] | 0.01

Variant | self-cleavage
GGCAGAUCUCAACACAGCGUGGCCAAGUGGGUGUGGCUAGACUGCU [G7U A24C C31G C46U] | 0.1
GGCAGAUCUCAACAGAGCGUGGCAAAGUGGCUGUGGCUAAACUGCC [G7U C15G G40A] | 0.1
GGCAGAUCUCAACACAGCGUGGCUAACUGGCUGUGGCUAAACUGCC [G7U A24U G27C G40A] | 0.12
GGCAGAUCUCUACACAGCGUGCUAAAGUGGCUGUGGCUAGACUGCC [G7U A11U G22C C23U] | 0.03
GGCAGACCUCAACACAGCGUGGCAAAGUGGCUGUGGCUAGACCGUC [G7C U43C C45U] | 0.07
GGCAGAUUUCAACACUGCGUGGCAAAGUGGCUGUGGCUAGACUGCC [G7U C8U A16U] | 0.41
GGCAGAUAUCAACACAGCGUGGCGAAGUGGCUGUGGCUAGACUGCC [G7U C8A A24G] | 0.35
GGCAGAUCUCAACACAGGGUGGCAAAGUGGCUGUGACUAGAUUGCC [G7U C18G G36A C42U] | 0.91
GGCAGAUUUCAUCACAGCGUGGCAAAGUGGAUGUGGCUAGACUGCC [G7U C8U A12U C31A] | 0.1
GGCAGAUCUCAAUACAGCGUGGCAACGUGGCUGUGGCCAGACUGCC [G7U C13U A26C U38C] | 0.03
GGCAGAUCUCAACACAGCGUGGCGAAGUUGCCGUGGCUAGACUGCC [G7U A24G G29U U32C] | 0.07
GGCAGAUCUAAACACAGCGUGGCAGAGUGUUUGUGGCUAGACUGCC [G7U C10A A25G G30U C31U] | 0.02
GGCAGAUCUCAACACAGCGUGGCCAAGUGGCUGUGGCUAGUCUGCC [G7U A24C A41U] | 0.22
GGCAGAUCUCAACAUAGCGUGGCGAAGUGGCUGUGGCUAGACUGCC [G7U C15U A24G] | 0.19
GGCAGAUUUCAACACAGCGUGGCAAAGUGGCUGUGGCUACACUGCC [G7U C8U G40C] | 0.36
GGCAGAUCUCAACACAGCGUGGCAAUGAGACUGUGGCUAGACUGCC [G7U A26U U28A G30A] | 0.13
GGCAGAUUUCAACACAGCGUGGCAAAGUGGCUGUGGGUAGACUGCC [G7U C8U C37G] | 0.05
GGCAGAUCUCAACACAGCGUGGCCAAGUGGCGGUGGAUAGACUGCC [G7U A24C U32G C37A] | 0.03
